Measurements from PubChem BioAssay AID1240 (Sanford-Burnham Center for Chemical Genomics, 2008).
Among all 50,000 compounds or so, about 800 (1.6%) showed an effect of 50% or more. The list shows a part of the results.

What follows are compounds tested against Bcl-2-like protein 10 (Homo sapiens) (UniProt Q9HD36) (assay: Phenotype converters, Bcl-B/TR3 peptide binding displacement, primary biochemical FP (AID 1240;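 note: 0% = Bcl-B with tracer peptide and DMSO and 100% = tracer peptide lacking Bcl-B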)). Conditions: GST-Bcl-B / FITC-TR3 peptide fluorescence polarization; stronger effect = higher value; compound at 3.75 mg/L.
Sequence of UniProt Q9HD36 (Q9HD36 whole entry, looked up): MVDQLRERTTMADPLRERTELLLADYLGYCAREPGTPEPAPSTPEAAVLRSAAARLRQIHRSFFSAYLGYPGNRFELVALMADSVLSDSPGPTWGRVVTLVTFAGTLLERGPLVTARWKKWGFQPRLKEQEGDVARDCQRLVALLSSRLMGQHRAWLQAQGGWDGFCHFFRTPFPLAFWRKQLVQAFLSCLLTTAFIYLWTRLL

Row | SMILES | displacement [%]
1 | CC(=O)CCc1oc2ccc(Br)cc2c1-c1ccc(C)o1 | -10.4
2 | CCCn1c(NC(=O)c2ccc(Cl)cc2)nc2ccccc21 | 14.6
3 | COc1ccc(CSc2nc3ccc(Br)cc3c(=O)n2-c2ccccc2)cc1 | 6.2
4 | CCc1c(C)sc(NC(=O)c2ccc(Cl)cc2Cl)c1C#N | -11.8
5 | COc1ccc(-c2csc(-n3[nH]c(C)c(N=Nc4c(C)cccc4[N+](=O)[O-])c3=O)n2)cc1 | -29.1
6 | Cc1ccc(NC(=O)C(=O)NCc2ccc3c(c2)OCO3)cc1 | 12.8
7 | COc1ccc(NC(=O)c2ccc(NC(=O)C(C)(C)C)cc2)cc1 | 14.3
8 | O=C(Oc1ccc(Cl)cc1)c1c(F)cccc1F | 16.4
9 | N/C(Cc1ccc(Cl)cc1)=N\OC(=O)c1ccc(Cl)c([N+](=O)[O-])c1 | -6.4
10 | COc1ccc(NC(=O)C(C)Sc2ccc(Cl)cc2)cc1 (centres undefined) | -4.2
11 | C=CCc1cccc(/C=N/NC(=O)c2cc(-c3ccc(OC)cc3)n[nH]2)c1O | -23.1
12 | Cc1cc(C)c2nc3s/c(=C\c4ccc(N(C)C)cc4)c(=O)n3c2c1 | 2.1
13 | COc1ccc(-c2nnc(SCc3ccccc3[N+](=O)[O-])n2-c2ccccc2)cc1 | -17.4
14 | CCc1ccc2oc(-c3cccc(NC(=O)c4ccco4)c3)nc2c1 | 2.6
15 | Cc1nnc(SCC(=O)N2c3ccccc3-c3c(ssc3=S)C2(C)C)s1 | 3.1
16 | CCC(Oc1ccccc1)C(=O)Nc1cccc2c1C(=O)c1ccccc1C2=O (centres undefined) | 9.4
17 | O=C(CN(c1ccc(F)cc1)S(=O)(=O)c1ccccc1)Nc1ccc(Br)cc1 | -0.7
18 | CCc1ccccc1NC(=O)c1c(NC(=O)C(C)(C)C)sc2c1CCC2 | -12.4
19 | O=C(NCC1CCCO1)C(=O)Nc1nccs1 (centres undefined) | 10.4
20 | COc1ccc(NC(=O)CN(Cc2ccccc2)S(=O)(=O)c2ccccc2)cc1Cl | 11.3
21 | Clc1ccc(-c2nc3ccccc3[nH]2)c(Cl)c1 | -0.9
22 | CCCC(=O)c1ccc(N2CCN(C(=O)c3ccc(F)cc3)CC2)c(F)c1 | -7.8

Row | SMILES | displacement [%]
23 | Cc1cc(C)c(S(=O)(=O)N(C)C2CCCCC2)c(C)c1 | -11.3
24 | C=CCn1c(NCCO)nc2sc3c(c2c1=O)CCC3 | 2.1
25 | COc1ccc2c(c1)CCC/C2=N\OC(=O)c1ccccc1F | 11.2
26 | COc1cc(C(=O)N2CCN(Cc3ccccc3C(F)(F)F)CC2)cc(OC)c1OC | 11.5
27 | CC(=O)/C(C(=N)N1CCN(c2ccccc2)CC1)=C(\C)O | -11.5
28 | O=C(O)C1CN(S(=O)(=O)c2ccccc2)CCN1S(=O)(=O)c1ccccc1 (centres undefined) | 11.4
29 | O=C(/C=C/c1ccc(OCc2ccccc2)cc1)c1cccs1 | 12.8
30 | CC(C)(C)NC(=O)C1CN(S(=O)(=O)c2ccccc2)CCN1S(=O)(=O)c1ccccc1 (centres undefined) | -1.3
31 | O=C(C1=C(O)C(=O)N(c2ncc(S(=O)(=O)c3ccc([N+](=O)[O-])cc3)s2)C1c1ccc(F)cc1)c1ccco1 (centres undefined) | 13.1
32 | C/C(=C\C(=O)c1ccc(Br)cc1)Nc1ccccc1O | 13.1
33 | CCOC(=O)C1=C(C)N=c2s/c(=C3\C(=O)N(CC(N)=O)c4ccccc43)c(=O)n2C1c1ccccc1 (centres undefined) | 6.6
34 | CC(C)CNC(=O)c1cc(-c2ccco2)nc2ccccc12 | -0.9
35 | CC(=O)c1ccc(NC(=O)c2ccc(N3C(=O)c4ccccc4C3=O)cc2)cc1 | 11.8
36 | CSc1ccc(S(=O)(=O)NCc2ccccc2C)cc1 | 16.3
37 | CC(=O)N1c2ccc(NC(=O)C(F)(F)F)cc2C(C)(c2ccccc2)CC1(C)C (centres undefined) | 3
38 | CC(=O)c1ccc(-c2ccc([N+](=O)[O-])cc2)s1 | 5.2
39 | CCOc1cc(/C=C2\C(=O)NC(=O)N(c3cc(C)cc(C)c3)C2=O)c(Br)cc1O | -7.2
40 | CCCc1nc2ccccc2n1CC(O)COc1ccc([N+](=O)[O-])cc1 (centres undefined) | -8
41 | COc1ccc(CC(=O)N(c2ccccc2)c2ccccc2)cc1OC | 0.5
42 | Cc1ccc(C(=O)NCCN(C)C)cc1 | 8
43 | COc1cc(/C=c2/sc3nc4ccccc4n3c2=O)cc(I)c1OCc1ccccc1 | 74.2
44 | O=C(CSc1nnc(-c2sc3ccccc3c2Cl)n1-c1ccccc1)c1ccc(F)cc1 | 7.2

Row | SMILES | displacement [%]
45 | CSc1ccc(CN2CCN(S(C)(=O)=O)CC2)cc1 | 13.6
46 | COc1ccc(C(=O)O/N=C(\N)c2cccc([N+](=O)[O-])c2)cc1OC | -10
47 | O=C(COc1ccc(Cl)cc1)N1CCN(c2ccccn2)CC1 | 9.2
48 | COC(=O)c1ccc(/C=C2\SC(=Nc3ccc(Br)cc3)NC2=O)cc1 | 2.4
49 | O=C(Nc1ccc(F)cc1)Nc1cccc(NC(=O)Nc2ccc(F)cc2)c1 | 0.6
50 | Cc1ccc(NC(=O)C2COc3ccccc3O2)c(Br)c1 (centres undefined) | -3.3
51 | CCS(=O)(=O)c1ccc(O)c(NC(=O)c2cc(OC)c(OC)c(OC)c2)c1 | 16.9
52 | c1ccc(C2=Nc3ccccc3NC(c3ccccc3)C2)cc1 (centres undefined) | -26.7
53 | CC(C)c1cc(C(C)C)c(S(=O)(=O)Nc2ccc(S(N)(=O)=O)cc2)c(C(C)C)c1 | -2
54 | CC(C)NC(=O)C12CC3(C)CC(C)(CC(C)(C3)C1)C2 | 7.6
55 | Cc1nn(C(=O)c2ccccc2)c(C)c1Cl | 1.8
56 | CC(=O)NC12CC3CC(CC(CCC(=O)O)(C3)C1)C2 | 7.1
57 | CC(C)c1ccc(/C=C/C(=O)Nc2ccc(C(N)=O)cc2)cc1 | -12.8
58 | COc1ccccc1NC(=O)c1cc2cc(Br)ccc2oc1=O | -28.1
59 | O=C(NCc1ccccc1)c1ccc(OC2CSC2)cc1 | -53.6
60 | COc1cc(/C=C2\SC(=S)N(NC(=O)c3ccccc3)C2=O)cc(OC)c1OC | 2.9
61 | O=C(NNC(=O)c1ccco1)Nc1ccc(Cl)c(Cl)c1 | 13.8
62 | COc1cc(C(=O)Nc2nc3ccc(Br)cc3s2)cc(OC)c1OC | 0.6
63 | CCC1=NN2C(=N)/C(=C/c3ccc(-c4cccc([N+](=O)[O-])c4)o3)C(=O)N=C2S1 | 124
64 | O=[N+]([O-])c1cccc(C2=Nc3ccc([N+](=O)[O-])cc3ON2)c1 | -0.9
65 | Cc1ccc(CC2CC(=O)N(CCc3ccc4c(c3)OCO4)C2=O)cc1 (centres undefined) | 9.9
66 | CN(C)c1ccc(-c2nc3cc(NC(=O)c4cc5ccccc5o4)ccc3o2)cc1 | 15.9

Row | SMILES | displacement [%]
67 | CCOc1ccc(N(CC(=O)Nc2cccc(C)c2)S(C)(=O)=O)cc1 | 0.1
68 | NS(=O)(=O)c1cccc(NC(=O)c2ccc(-c3cccc(Cl)c3)o2)c1 | -9.6
69 | COc1ccc(CSCC(=O)NC2CCCCC2)cc1 | 0.4
70 | COc1ccc2c(c1)C(C)=CC(C)(C)N2S(=O)(=O)c1ccc(NC(C)=O)cc1 | 1.8
71 | Cc1nc2c(C)c(-c3ccccc3)[nH]n2c(=O)c1Cl | 6.8
72 | Cn1c(=O)c2c(nc(NCC(O)c3ccccc3)n2C)n(C)c1=O (centres undefined) | -7.1
73 | O=C(Nc1cccc(Br)c1)c1ccc(Cl)c([N+](=O)[O-])c1 | 14.1
74 | Nc1ccc(C2=Nc3cccc4cccc(c34)N2)cc1 | 16.2
75 | COc1cccc(N2C(=O)CSC2=S)c1 | 18
76 | COc1ccc(OC)c(N2C(=O)NC(=O)C(=Cc3cccs3)C2=O)c1 | 9.1
77 | O=[N+]([O-])c1ccc(N2CCN(S(=O)(=O)c3ccccc3)CC2)cc1N1CCOCC1 | 10.5
78 | C=CCN1C(=O)CS/C1=N\N=C\c1cccc([N+](=O)[O-])c1 | 16.1
79 | O=C(CC1CCC1)Nc1ccc2c(c1)oc1ccccc12 | -17.7
80 | COc1ccc(/C=C/C(=O)c2ccc(I)cc2)cc1 | -7.2
81 | O=C(/C=C/c1cccc([N+](=O)[O-])c1)NCCC12CC3CC(CC(C3)C1)C2 | 15.6
82 | c1ccc(Nc2ccc3ccccc3n2)nc1 | -0.5
83 | CC1=NN(c2ccc(S(N)(=O)=O)cc2)C(=O)/C1=C\c1ccc(-c2ccc(Br)cc2)o1 | -2.7
84 | Cc1ccc2c(Cl)c(C(=O)N3CCN(c4ccc(F)cc4)CC3)sc2c1 | 3.7
85 | CSC(=N)/C(C#N)=N/Nc1ccccc1 | 22.5
86 | CCN(CC)S(=O)(=O)c1ccc(NC(=O)COc2ccccc2)cc1 | 12.3
87 | COc1ccc(OC)c(/C=C2/C(=O)NN(c3ccc(C)cc3)C2=O)c1 | 8.5
88 | CCOC(=O)c1c(C)nc2ccc(OC(F)(F)F)cc2c1-c1ccccc1 | 9.9

Row | SMILES | displacement [%]
89 | COc1ccc(-c2cc(-c3ccccc3)nc(N/N=C/c3cccnc3)n2)cc1 | -15.9
90 | O=C1C2C3C=CC(C3)C2C(=O)N1c1ccc(Cl)cc1[N+](=O)[O-] (centres undefined) | -22.2
91 | COc1ccc(N=C(Sc2nc3ccccc3o2)c2ccc([N+](=O)[O-])cc2[N+](=O)[O-])cc1 | -0.2
92 | COc1ccc(CNC(=O)N2CCOCC2)cc1 | 9.1
93 | CCCN1C(=O)c2ccccc2NC1c1ccc(F)cc1 (centres undefined) | 13.2
94 | COC(=O)CN(c1ccccc1Br)S(C)(=O)=O | 17
95 | Cc1ccc(N2C(=O)/C(=C\c3ccc(-c4ccc(Cl)c(C(=O)O)c4)o3)C(=O)NC2=S)cc1 | 10.8
96 | O=C(Cc1ccc(Br)cc1)Nc1ccccc1C(F)(F)F | 5
97 | O=C1NC(=Nc2cccc(Cl)c2Cl)S/C1=C\c1ccco1 | 42.1
98 | Nc1nnc2c(n1)-c1ccccc1C2=O | 1
99 | CC(=O)C1=C(O)C(=O)N(CCN(C)C)C1c1ccc(C(C)C)cc1 (centres undefined) | -6.6
100 | C/C(=N\N1CCN(Cc2ccccc2)CC1)c1ccco1 | -10.8
101 | O=C(CSCC(=O)Nc1ccccc1)NCc1ccccc1 | -1.3
102 | Cc1ccccc1OCC(=O)N/N=C/c1ccc[nH]1 | -4.5
103 | CCN1C(=O)/C(=C2\SC(=S)N(c3cc(OC)ccc3OC)C2=O)c2ccccc21 | 13
104 | COC(=O)C1=C(O)/C(=C/c2ccc(OCC(=O)NC(C)C)cc2)N=C1C | 9.6
105 | CC1(C)Cc2ccccc2C2=C(C(=O)N3CCOCC3)C(=O)C(=O)N21 | 6.6
106 | O=C(NCc1ccc(Cl)cc1Cl)C(=O)N/N=C/c1ccccc1F | 7.6
107 | N#CC(C#N)=CN1CCCc2ccccc21 | -7.9
108 | O=c1nc(/C=C/c2ccc(Cl)cc2)cc(C(F)(F)F)[nH]1 | 4.5
109 | COC(=O)c1c(NC(=O)C2C3CCC(C3)C2C(=O)O)sc(C)c1-c1cc(C)ccc1C (centres undefined) | 3
